According to paper PMC7105294, “STUB1 is targeted by the SUMO-interacting motif of EBNA1 to maintain Epstein-Barr Virus latency” (PLoS Pathogens, 2020):

Target: T1, GST-fusion wild type EBNA1 DBD (441-619) (Epstein-Barr virus, UniProt P03211 441-619)
T1 construct: source: E. coli BL21 (DE3), purified (Glutathione Sepharose)
T1 sequence: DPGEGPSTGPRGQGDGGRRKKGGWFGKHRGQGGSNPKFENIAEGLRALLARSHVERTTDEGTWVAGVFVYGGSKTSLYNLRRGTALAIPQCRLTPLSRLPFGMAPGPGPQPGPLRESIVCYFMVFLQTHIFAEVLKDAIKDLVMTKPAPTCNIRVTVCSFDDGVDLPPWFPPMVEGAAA
Assay: pull-down; purified His-SUMO1/2 incubated with GST-fusion EBNA1 DBD proteins purified from E. coli, pulled down with Glutathione-sepharose beads; immunoblot
Details: both partners purified

B1: His-SUMO1 recombinant protein (natural protein)
chain: not shown
notes: also called His-tagged SUMO1; source: E. coli BL21 (DE3), purified (Ni-NTA agarose)
  binding result: binds
